Source: the supplement of paper PMC4967469

Experiments:
Assay in all cases: Viability of human cancer cell lines after 72 h of drug (GDSC screen)
Shikonin = compound: CC(C)=CC[C@@H](O)C1=CC(=O)c2c(O)ccc(O)c2C1=O [Shikonin]; conditions: top dose 16 µM; top dose inferred
Description: (§1)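 Human cancer cell lines in 384-well plates, medium with 10% serum, drug for 72 h over a 256-fold dose range (nine 2-fold or five 4-fold steps up to the top dose). Adherent lines were fixed and stained with the nucleic acid dye Syto60, suspension lines read with resazurin; signal relative to control wells, capped at 0 and 100%. One two-parameter sigmoid per drug and line, fitted in a mixed model over all curves with the slope shared within a line.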

BMS-536924 = compound: Cc1cc(N2CCOCC2)cc2[nH]c(-c3c(NC[C@@H](O)c4cccc(Cl)c4)cc[nH]c3=O)nc12 [BMS-536924]; conditions: top dose 4 µM; screen: GDSC drug entry 1091; top dose inferred
Description: as §1

BIRB 0796 = compound: Cc1ccc(-n2nc(C(C)(C)C)cc2NC(=O)Nc2ccc(OCCN3CCOCC3)c3ccccc23)cc1 [BIRB 0796]; conditions: top dose 10 µM; top dose inferred
Description: as §1

SB-525334 = compound: Cc1cccc(-c2[nH]c(C(C)(C)C)nc2-c2ccc3nccnc3c2)n1 [SB-525334]; conditions: top dose 20 µM; top dose inferred
Description: as §1

VX-702 = compound: NC(=O)c1ccc(N(C(N)=O)c2c(F)cccc2F)nc1-c1ccc(F)cc1F [VX-702]; conditions: top dose 2 µM; top dose inferred
Description: as §1

Olaparib = compound: O=C(c1cc(Cc2n[nH]c(=O)c3ccccc23)ccc1F)N1CCN(C(=O)C2CC2)CC1 [Olaparib]
Description: as §1

Wee1 inhibitor 681640 = compound: O=C1NC(=O)c2c1c(-c1ccccc1Cl)cc1[nH]c3ccc(O)cc3c21 [Wee1 inhibitor 681640]; conditions: top dose 2 µM; top dose inferred
Description: as §1

[1] = top dose 5 µM, screen: GDSC drug entry 1017, top dose inferred
[2] = top dose 10 µM, screen: GDSC drug entry 1495

| Cell Line | AUC (Shikonin) | IC50 (Shikonin) | AUC (BMS-536924) | IC50 (BMS-536924) | AUC (BIRB 0796) | IC50 (BIRB 0796) | AUC (SB-525334) | IC50 (SB-525334) | AUC (VX-702) | IC50 (VX-702) | AUC (Olaparib; [1]) | IC50 (Olaparib; [1]) | AUC (Olaparib; [2]) | IC50 (Olaparib; [2]) | AUC (Wee1 inhibitor 681640) | IC50 (Wee1 inhibitor 681640) |
| --- | --- | --- | --- | --- | --- | --- | --- | --- | --- | --- | --- | --- | --- | --- | --- | --- |
| EGI-1 (biliary tract, adherent) | 0.631 | 2.56 µM | 0.915 | > 4 µM | 0.979 | > 10 µM | 0.944 | > 20 µM | 0.966 | > 2 µM | 0.964 | > 5 µM | 0.927 | > 10 µM | 0.953 | > 2 µM |
| FU97 (stomach, adherent) | 0.44 | 0.681 µM | 0.867 | 3.78 µM | 0.983 | > 10 µM | 0.886 | > 20 µM | 0.98 | > 2 µM | 0.947 | > 5 µM | 0.919 | > 10 µM | 0.985 | > 2 µM |
| FU-OV-1 (ovary, adherent) | 0.456 | 0.73 µM | 0.843 | > 4 µM | 0.981 | > 10 µM | 0.953 | > 20 µM | 0.973 | > 2 µM | 0.973 | > 5 µM | 0.965 | > 10 µM | 0.981 | > 2 µM |
| G-292 Clone A141B1 (osteosarcoma, adherent) | 0.584 | 1.95 µM | 0.788 | 3.08 µM | 0.868 | > 10 µM | 0.97 | > 20 µM | 0.906 | > 2 µM | 0.95 | > 5 µM | 0.938 | > 10 µM | 0.896 | > 2 µM |
| G-361 (melanoma, adherent) | 0.358 | 0.412 µM | 0.978 | > 4 µM | 0.975 | > 10 µM | 0.938 | > 20 µM | 0.988 | > 2 µM | 0.988 | > 5 µM | 0.947 | > 10 µM | 0.988 | > 2 µM |
| G-402 (soft tissue, adherent) | 0.419 | 0.559 µM | 0.961 | > 4 µM | 0.88 | > 10 µM | 0.83 | 18.7 µM | 0.88 | > 2 µM | 0.915 | > 5 µM | 0.861 | > 10 µM | 0.931 | > 2 µM |
| GMS-10 (glioma, adherent) | 0.665 | 2.86 µM | 0.923 | > 4 µM | 0.983 | > 10 µM | 0.985 | > 20 µM | 0.988 | > 2 µM | 0.988 | > 5 µM | – | – | 0.942 | > 2 µM |
| H4 (glioma, adherent) | 0.32 | 0.317 µM | 0.893 | > 4 µM | 0.981 | > 10 µM | 0.977 | > 20 µM | 0.973 | > 2 µM | 0.863 | 4.25 µM | 0.846 | 7.15 µM | 0.816 | 1.1 µM |
| H2373 (mesothelioma, adherent) | 0.605 | 2.1 µM | 0.889 | > 4 µM | 0.931 | > 10 µM | 0.917 | > 20 µM | 0.983 | > 2 µM | 0.981 | > 5 µM | 0.895 | > 10 µM | 0.947 | > 2 µM |
| H3255 (lung adenocarcinoma, adherent) | 0.68 | 3.54 µM | 0.882 | > 4 µM | 0.968 | > 10 µM | 0.962 | > 20 µM | 0.984 | > 2 µM | 0.984 | > 5 µM | 0.932 | > 10 µM | 0.923 | > 2 µM |
| HCC1143 (breast, adherent) | 0.441 | 0.647 µM | 0.784 | 2.47 µM | 0.98 | > 10 µM | 0.941 | > 20 µM | 0.978 | > 2 µM | 0.971 | > 5 µM | 0.972 | > 10 µM | 0.98 | > 2 µM |
| HCC1500 (breast, adherent) | 0.627 | 2.27 µM | 0.967 | > 4 µM | 0.988 | > 10 µM | 0.931 | > 20 µM | 0.954 | > 2 µM | 0.964 | > 5 µM | 0.987 | > 10 µM | 0.982 | > 2 µM |
| HCC-44 (lung adenocarcinoma, adherent) | 0.395 | 0.519 µM | 0.909 | > 4 µM | 0.974 | > 10 µM | 0.946 | > 20 µM | 0.984 | > 2 µM | 0.927 | > 5 µM | 0.891 | > 10 µM | 0.956 | > 2 µM |
| HCC-827 (lung adenocarcinoma, adherent) | 0.76 | 6.46 µM | 0.924 | > 4 µM | 0.984 | > 10 µM | 0.96 | > 20 µM | 0.979 | > 2 µM | 0.97 | > 5 µM | – | – | 0.96 | > 2 µM |
| HDQ-P1 (breast, adherent) | 0.495 | 0.964 µM | 0.968 | > 4 µM | 0.983 | > 10 µM | 0.985 | > 20 µM | 0.985 | > 2 µM | 0.985 | > 5 µM | 0.954 | > 10 µM | 0.953 | > 2 µM |
| HN (head and neck, adherent) | 0.51 | 1.07 µM | 0.909 | > 4 µM | 0.966 | > 10 µM | 0.989 | > 20 µM | 0.938 | > 2 µM | 0.955 | > 5 µM | 0.863 | 7.77 µM | 0.852 | 1.4 µM |
| HO-1-u-1 (head and neck, adherent) | 0.541 | 1.28 µM | 0.926 | > 4 µM | 0.972 | > 10 µM | 0.895 | > 20 µM | 0.986 | > 2 µM | 0.915 | > 5 µM | 0.947 | > 10 µM | 0.988 | > 2 µM |
| HOS (osteosarcoma, adherent) | 0.228 | 0.192 µM | 0.917 | > 4 µM | 0.929 | > 10 µM | 0.988 | > 20 µM | 0.989 | > 2 µM | 0.935 | > 5 µM | 0.981 | > 10 µM | 0.894 | 1.71 µM |
| HT-3 (cervix, adherent) | 0.471 | 0.835 µM | 0.755 | 1.37 µM | 0.952 | > 10 µM | 0.967 | > 20 µM | 0.987 | > 2 µM | 0.987 | > 5 µM | 0.861 | 8.67 µM | 0.948 | > 2 µM |
| HT-1376 (bladder, adherent) | 0.427 | 0.609 µM | 0.838 | 3.43 µM | 0.984 | > 10 µM | 0.985 | > 20 µM | 0.984 | > 2 µM | 0.976 | > 5 µM | 0.941 | > 10 µM | 0.926 | > 2 µM |
| Hep 3B2_1-7 (liver, adherent) | 0.301 | 0.277 µM | 0.723 | 1.07 µM | 0.937 | > 10 µM | 0.94 | > 20 µM | 0.986 | > 2 µM | 0.987 | > 5 µM | 0.985 | > 10 µM | 0.984 | > 2 µM |
| Hs633T (fibrosarcoma, adherent) | 0.196 | 0.157 µM | 0.898 | 3.39 µM | 0.955 | > 10 µM | 0.976 | > 20 µM | 0.987 | > 2 µM | 0.917 | > 5 µM | 0.895 | 8.24 µM | 0.898 | 1.69 µM |
| Hs746T (stomach, adherent) | 0.718 | 5.23 µM | 0.978 | > 4 µM | 0.962 | > 10 µM | 0.969 | > 20 µM | 0.969 | > 2 µM | 0.962 | > 5 µM | 0.93 | > 10 µM | 0.851 | > 2 µM |
| HuCCT1 (biliary tract, adherent) | 0.329 | 0.314 µM | 0.98 | > 4 µM | 0.981 | > 10 µM | 0.98 | > 20 µM | 0.984 | > 2 µM | 0.983 | > 5 µM | 0.929 | > 10 µM | 0.944 | > 2 µM |
| HuO-3N1 (osteosarcoma, adherent) | 0.737 | 6.03 µM | 0.917 | > 4 µM | 0.966 | > 10 µM | 0.934 | > 20 µM | 0.979 | > 2 µM | 0.973 | > 5 µM | 0.932 | > 10 µM | 0.971 | > 2 µM |
| IPC-298 (melanoma, adherent) | 0.804 | 7.86 µM | 0.961 | > 4 µM | 0.987 | > 10 µM | 0.924 | > 20 µM | 0.984 | > 2 µM | 0.988 | > 5 µM | 0.985 | > 10 µM | 0.9 | > 2 µM |
| JHH-2 (liver, adherent) | 0.46 | 0.774 µM | 0.941 | > 4 µM | 0.986 | > 10 µM | 0.983 | > 20 µM | 0.985 | > 2 µM | 0.985 | > 5 µM | 0.978 | > 10 µM | 0.914 | > 2 µM |
| JHH-4 (liver, adherent) | 0.388 | 0.493 µM | 0.893 | > 4 µM | 0.978 | > 10 µM | 0.838 | 13.5 µM | 0.987 | > 2 µM | 0.987 | > 5 µM | 0.969 | > 10 µM | 0.987 | > 2 µM |
| JHH-7 (liver, adherent) | 0.277 | 0.245 µM | 0.858 | 2.97 µM | 0.975 | > 10 µM | 0.952 | > 20 µM | 0.989 | > 2 µM | 0.927 | > 5 µM | 0.942 | > 10 µM | 0.984 | > 2 µM |

Lines with a small IC50 respond at low doses; a fit beyond the top or the lowest dose is shown as a bound at that dose. AUC sums up the same curve from the lowest dose to the 256-fold higher top dose: 1 means no effect, lower means more sensitive. The top dose, if marked as inferred, was derived from the fitted curves, not read from the paper. For some of these results: Where an entry number is given, a second screen of the drug exists; the two often differ.
